Data taken from publication PMC12040169 (PLOS Biology, 2025).
The list shows a part of the results.

Tested on: T1, C. trachomatis L2/434/Bu expressing GFP (CTL2-GFP)
T1 construct: L2/434/Bu GFP intracellular growth in HeLa cells
Design: species or system HeLa; C. trachomatis total inclusion area by high-content imaging, normalised to DMSO
Details: total inclusion area; 28.5 h, 10 µM; inhibitor
How it was run: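 Following bulk GFP and resorufin fluorescence reads, infected cells were fixed, Hoechst-stained and imaged on a high-content platform. Inclusion total area and number per well served as growth proxies; nuclei counts indicated host viability. MICs were derived as for the fluorescence assay.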

Row | Compound | % of control remaining
1 | O=C(COc1cccc2ccccc12)Nc1cccnc1 [CBK263015] | 91.358
2 | O=C(CSCc1ccc(Cl)cc1)Nc1ccc(S(=O)(=O)N2CCCCCC2)cc1 [CBK267017] | 44.8319
3 | CC(C)C(=O)Nc1ccc(Oc2ccc(C(=O)O)c(C(=O)O)c2)cc1 [CBK263463] | 102.615
4 | O=C(CSCc1cccc2ccccc12)Nc1c[nH]c(=O)[nH]c1=O [CBK268500] | 122.083
5 | O=C(Nc1cccc2ccccc12)N1CCC(n2c(=O)[nH]c3ccccc32)CC1 [CBK149858] | 98.4511
6 | CCCC(=O)Nc1sc(C)c(C)c1C(=O)Nc1ccccc1OC [CBK262455] | 72.1396
7 | CC(=O)Nc1nc2ccc(S(=O)(=O)N3CCCC3)cc2s1 [CBK287604] | 87.1957
8 | [O-][S+]1c2ccccc2Oc2ccccc21 [CBK027634] | 90.2544
9 | O=c1oc2ccccc2c(NCCN2CCCCC2)c1[N+](=O)[O-] [CBK218805] | 82.6899
10 | CCNc1cc(-c2ccc(OC)cc2)ncn1 [CBK090883] | 91.5841
11 | Cc1cc(C)cc(N(CCC#N)C(=O)CSc2nnc[nH]2)c1 [CBK296955] | 50.2156
12 | Cn1cc(CN2CCCN(C(=O)c3cc4ccccc4[nH]3)CC2)cn1 [CBK304920] | 15.1338
13 | COc1ccc(C2C(C(C)=O)=C(O)C(=O)N2CCC(=O)O)cc1 (stereo not drawn) [CBK263763] | 99.9938
14 | Cc1cc(C)n(-c2nc3cc(Cl)ccc3nc2Nc2ccc3c(c2)OCO3)n1 [CBK268380] | 105.951
15 | O=C(NC1CCNCC1)c1cc2ccccc2[nH]1 [CBK168609] | 67.4144
16 | OCCn1ncc2c(NCc3cccc(Cn4ccnc4)c3)ncnc21 [CBK304184] | 31.8073
17 | O=C(CSc1ncccn1)N/N=C/c1ccncc1 [CBK262401] | 97.5876
18 | COc1ccc([C@@H](O)[C@H]2CCCNC2)cc1 [CBK282298] | 93.2626
19 | CC(C)Cn1c(=O)c2c(nc3n2CCS3)n(C)c1=O [CBK307109] | 66.0739
20 | COCc1nnc(Sc2nccnc2NC(C)C)s1 [CBK115204] | 81.4381
21 | O[C@H]1[C@H](NCc2ccccn2)[C@H]2CO[C@H](O2)[C@@H]1N1CCC(Cc2ccccc2)CC1 [CBK288814] | 102.877

Row | Compound | % of control remaining
22 | COC(=O)c1ccc(OCCn2nc(C)c(C)c(C#N)c2=O)cc1 [CBK305676] | 120.557
23 | CCOC(=O)[C@H]1CC[C@]2(CC1)CN(C)C(=O)c1ccccc1O2 [CBK284848] | 90.4161
24 | Cc1cccc(NCC(O)Cn2c3ccc(Br)cc3c3cc(Br)ccc32)c1 (stereo not drawn) [CBK261419] | 79.5114
25 | Cc1cc(C)n(CC2CCCCN2Cc2ccccn2)n1 (stereo not drawn) [CBK304853] | 84.5554
26 | O=S(=O)(Nc1ccc(N2CCOCC2)cc1)c1cccc(OC(F)(F)F)c1 [CBK296759] | 93.8598
27 | Cc1cc(N2CCC(N3CCN(C)CC3)CC2)nc(N)n1 [CBK167964] | 20.8665
28 | O=C(NCc1ccccc1OC1CCNC1)c1ccc(-c2cccc(C(F)(F)F)c2)o1 (stereo not drawn) [CBK034151T] | 64.5798
29 | O=C(NC1CCCC1)c1ccc(-n2ccnc2)c(-n2cccc2)c1 [CBK285368] | 104.768
30 | CSc1nc(NC(=O)Cc2c[nH]c3ccccc23)cc(N2CCNCC2)n1 [CBK050265T] | 81.1341
31 | CCOC(=O)N(C)c1c(CC)nc2ccc(C(=O)Nc3cc(-c4ccccc4)ccc3OC)cn12 [CBK145478] | 108.34
32 | O=C(Nc1cc(Cl)ccc1C(=O)O)c1ccc2c(c1)C(=O)N(Cc1cccnc1)C2=O [CBK266455] | 112.346
33 | OCC1CCN(Cc2ccc(OC3CCCC3)cc2)C1 (stereo not drawn) [CBK282929] | 70.8619
34 | O=C1CN(S(=O)(=O)c2ccc(NS(=O)(=O)c3ccc4ccccc4c3)cc2)CC(=O)N1 [CBK262513] | 112.854
35 | Cc1ccc2c(c1)C(c1c[nH]c3ccccc13)(c1c[nH]c3ccccc13)C(=O)N2C [CBK266401] | 136.61
36 | O=C(c1nccs1)C1CCN(C(=O)c2cccs2)CC1 [CBK284159] | 68.3452
37 | COC(=O)c1ccccc1NC(=O)COc1ccc(Br)c(C)c1 [CBK263152] | 98.2391
38 | Cc1ccn(CCNC(=O)c2[nH]c3c(Cl)cccc3c2C)n1 [CBK282608] | 135.398
39 | CC(NS(=O)(=O)Cc1ccccc1Cl)C(=O)N1CCCCC1 (stereo not drawn) [CBK304928] | 6.565
40 | COc1cccc(C(=O)N2CCC(c3cc4ncccc4[nH]3)CC2)c1 [CBK283398] | 91.2551
41 | CC(C)(C)c1ccc(OCC(O)Cn2c(CO)nc3ccccc32)cc1 (stereo not drawn) [CBK293973] | 86.3244
42 | Cc1nnc(CN(CC2CCCO2)C2CCCC2)n1C1CC1 (stereo not drawn) [CBK304147] | 79.4379

Row | Compound | % of control remaining
43 | COc1cc(/C(CS(C)(=O)=O)=N\O)cc(OC)c1OC [CBK022984] | 46.5336
44 | CCN(CC)c1ccc(C(=O)Cn2c(=O)n(S(=O)(=O)c3ccc4ccccc4c3)c3ccccc32)cc1 [CBK106505] | 94.9567
45 | Cc1nn2c(=O)c(CCC(=O)O)c(C)[nH]c2c1-c1ccccc1 [CBK287011] | 100.253
46 | CN1CCN(C(=O)Cn2cccc(C(=O)Nc3ccc(F)cc3)c2=O)C(c2ccccc2)C1 (stereo not drawn) [CBK286045] | 100.951
47 | O=C(OCc1nc2cc3ccccc3cc2[nH]1)C1CCCCC1 [CBK018307] | 46.9771
48 | O=C(CN1CCOCC1)Nc1ccc(Cl)cc1C(=O)c1ccccc1 [CBK086450] | 107.707
49 | O=C(NCc1ccc(Cl)c(Cl)c1)N1CCCCC1CO (stereo not drawn) [CBK156164] | 104.953
50 | O=C(c1ccc(F)cc1)N1CCN(c2ccccn2)CC1 [CBK287795] | 85.8829
51 | CC1CCc2c(sc3ncnc(SCC(=O)N(C)C)c23)C1 (stereo not drawn) [CBK305946] | 34.636
52 | CCc1c(C)nc2c(C(=O)NCc3cc(C)on3)cnn2c1C [CBK162150] | 52.9333
53 | COc1ccc(OC)c2[nH]c(C(=O)N3CCCC34CC=CC4)cc12 [CBK282814] | 116.936
54 | O=C(CCc1c[nH]c2ccccc12)OCc1nnc(-c2ccccc2)o1 [CBK269642] | 96.0822
55 | CCc1c(C(=O)Nc2ccc3nc(C)cn3c2)cnc2cc(O)nn12 [CBK291178] | 111.672
56 | CN(C)Cc1ccccc1-n1ncc(-c2ccc(Br)cc2F)n1 [CBK112924] | 75.2018
57 | COc1ccc2occ(C(=O)c3ccc(N)cc3)c2c1 [CBK111303] | 103.705
58 | CS(=O)(=O)N1CC2(CCN(CCCOc3ccccc3)CC2)c2ccccc21 [CBK115457T] | 46.4067
59 | O=C1NC(=O)C(CC(=O)N2CCN(Cc3nc4ccccc4s3)CC2)S1 (stereo not drawn) [CBK295654] | 112.182
60 | CCCCC(=O)Nc1ccc(C(=O)N2CCN(C)CC2)cc1 [CBK304662] | 54.23
61 | Cc1ccccc1NCC(=O)N/N=C\c1cc(Br)c(O)c(Br)c1 [CBK262120] | 105.556
62 | Cc1cccc(OCCNC(=O)CSc2n[nH]c(=O)n2C2CC2)c1 [CBK295599] | 88.5765
63 | CC1(C)NC(=O)N(CC(O)CN2CCCC2)C1=O (stereo not drawn) [CBK264558] | 98.2493

Row | Compound | % of control remaining
64 | Cc1ccc(NC(=O)NC(=O)C2CCN(CCc3ccc(F)cc3)CC2)cc1Cl [CBK035047] | 100.132
65 | Fc1cccc(Cl)c1CN1CNC(=S)NC1 [CBK006480] | 130.53
66 | CC(C)c1ccc(OCCN2CCNCC2)cc1 [CBK266024C] | 112.661
67 | COCC(=O)N[C@H]1CCN2C(=O)c3cc(-c4ccccc4F)ccc3NC(=O)[C@@H]2C1 [CBK289553] | 84.3356
68 | c1ccc(N2CCN(C3c4ccccc4Sc4ccccc43)CC2)cc1 [CBK066894] | 91.526
69 | Fc1cc(F)c(OCCCCOc2nccnc2N2CCNCC2)cc1F [CBK028624T] | 79.1148
70 | CCN1CCN(C(=O)C2CC(C)=C(C)CC2C(=O)O)CC1 (stereo not drawn) [CBK270311] | 113.33
71 | CCNC(=O)NC1CC(C)(C)Cc2c1cnn2-c1ccc(OC)cc1 (stereo not drawn) [CBK307313] | 64.9625
72 | CCOc1cccc(-c2cn3ccnc3c(N(C)CCN(C)C)n2)c1 [CBK066569] | 120.706
73 | COc1cc(CNC(=O)c2cnoc2-c2ccc(Br)cc2)cc(OC)c1OC [CBK154893] | 100.284
74 | CC1CC(C)CN(C(=O)c2ccc(-n3ccnc3)c(-n3cccc3)c2)C1 (stereo not drawn) [CBK285372] | 87.3462
75 | COc1ccc(CCCC(=O)Nc2cncc(OC3CCNCC3)n2)cc1OC [CBK028437T] | 86.4214
76 | CS(=O)(=O)Nc1ccccc1C(=O)NCc1ccccn1 [CBK268494] | 119.282
77 | COc1ccc2ccccc2c1CNc1ccc(N2CCOCC2)c(C(=O)O)c1 [CBK269376] | 104.664
78 | NS(=O)(=O)c1ccc(CNC(=O)c2cncc(-c3ccc(C(=O)N4CCOCC4)cc3)c2)cc1 [CBK158641] | 71.255
79 | CCn1cc(C(=O)O)c(=O)c2cc(F)c(N3CCN(C(=S)Nc4ccc5c(c4)OCO5)CC3)cc21 [CBK268027] | 98.4026
80 | COC(=O)CCNc1n[nH]c(=O)[nH]c1=O [CBK217927] | 102.212
81 | COc1cc(CN2CCN(S(=O)(=O)c3ccc(F)cc3)CC2)cc(OC)c1O [CBK264269G] | 101.816
